The list shows a part of the results.

This test concerns PfAP2-HC AP2 domain (GST-tagged). Nature of the test: gcPBM binding intensity (ln(normalized median fluorescence intensity)); higher = stronger DNA binding. In outline: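 Binding intensity is defined as the maximum Masliner-normalised natural-log median intensity across replicate spots for either probe orientation. It was measured on an Agilent 4 × 180k array of primer-extended double-stranded 36-bp intergenic genomic probes and negative controls, to which GST-tagged P. falciparum DNA-binding domains made in E. coli were applied for 1 h in 1× PBS with 1% milk, 0.2 mg/ml BSA, 0.5% salmon testes DNA and 0.03% Triton X-100. Detection was by Alexa488 anti-GST antibody and scanning at 488 nm.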
“ATTTATTAATTACCATGTATAAAAAATTATATAATA [CACACA_negctrl_site581]”: the “gcPBM binding intensity (ln)” value is 9.39.

For the sequence “AGCAACTCAATATATATAAGAATTGTAATATAATAT [GTGCAC_negctrl_site429]”, the “gcPBM binding intensity (ln)” value was 9.66.

Regarding “ATACAATACAAAAACACACACAAAAAAAGAAAAGGA [CACACA_site2156]”, the “gcPBM binding intensity (ln)” value was 10.4.

In the case of “TTAAAATAAAGAAAATGTACATAAATTAAAATAAAG [XGTACX_site2281]”, the “gcPBM binding intensity (ln)” value is 9.81.

Consider “TTTTTTTTTTTTTTTATAGTACATTACCAAAAAAAA [CACACA_negctrl_site1197]”, for which the “gcPBM binding intensity (ln)” value is 8.94.

For the sequence “ATTTATTGACTATTTACACACATATTTATTATAATA [CACACA_site1624]”, the “gcPBM binding intensity (ln)” value is 9.93.

“ACACATAATATGTGTAGTACTTTTTCTTTAACATTA [XGTACX_site1436]”: the “gcPBM binding intensity (ln)” value was 9.74.

Turning to “AACAGTAACATTGAATGTACTTAATTTTAAGAAAAT [XGTACX_site2971]”, the “gcPBM binding intensity (ln)” value worked out at 9.67.

On to “TATAAATATAAATATACACACATATATTTATTTATA [CACACA_site6890]”, for which the “gcPBM binding intensity (ln)” value came out at 9.66.

With “TATTTTGTTCTTTCCACACACAAATACAGATATTGT [CACACA_site6097]”, the “gcPBM binding intensity (ln)” value stood at 10.1.

As for “TCTTATCCATATATTACACACTATAAATAGAAATTA [CACACA_site6274]”, the “gcPBM binding intensity (ln)” value turned out to be 9.45.

As to “ATTTGTATATATTAATGTACACACATGCGTATGTTC [XGTACX_site7579]”, the “gcPBM binding intensity (ln)” value was determined as 10.

On to “TGGGTAAACAGACACACACACATATAGATTTATATA [CACACA_site7026]”, for which the “gcPBM binding intensity (ln)” value worked out at 10.9.

For the sequence “AAATTATATGAACATTGTACTTTATATATGTAAGAA [XGTACX_site1611]”, the “gcPBM binding intensity (ln)” value was determined as 9.64.

“CTTCCAATAAAAAATGCACACATTGAAAATATTGAA [CACACA_site2688]”: the “gcPBM binding intensity (ln)” value was 9.66.

Consider “ACACACATATATACATGTACATATATATATATATAT [XGTACX_site451]”, for which the “gcPBM binding intensity (ln)” value stood at 10.1.

Consider “TAATAAAATATGTACACACATACACCCATATATATA [CACACA_site1220]”, for which the “gcPBM binding intensity (ln)” value came out at 10.

For “TGTAGTCTGGAGAAAAGTACATAGTATCTGGTAACC [XGTACX_site2025]”, the “gcPBM binding intensity (ln)” value was 9.6.

For “AACAGACAGAAACACACACACATATATATATATATA [CACACA_site3394]”, the “gcPBM binding intensity (ln)” value came to 10.8.

Take “ATTTTCCAAAATAATTGTACAGGAAAGAAATAATTA [XGTACX_site7424]”: the “gcPBM binding intensity (ln)” value was found to be 9.41.

As for “ATACATATTTTACATTCACACAACAAATTTATATTT [CACACA_site4700]”, the “gcPBM binding intensity (ln)” value worked out at 9.87.

In the case of “AGGAACAAAATATACTGTACTTTATTATTTTCAAAA [XGTACX_site4421]”, the “gcPBM binding intensity (ln)” value amounted to 9.34.

Regarding “ATATATTTTAATTGATGTACTTTTTTATGTTAATGA [XGTACX_site4316]”, the “gcPBM binding intensity (ln)” value is 9.5.

Regarding “TATACATATGAAAATACACACATACATACATATATA [CACACA_site8484]”, the “gcPBM binding intensity (ln)” value came to 10.

These data come from the supplement of paper PMC11417369.
